# Some of the results follow. At the low end of the ranking the order means little. The protein was read in a cell extract, so binding may be indirect.
# Molecular target: T1, HNF4alpha8 (COS-7 nuclear extract) (UniProt P41235-5)
# T1 sequence: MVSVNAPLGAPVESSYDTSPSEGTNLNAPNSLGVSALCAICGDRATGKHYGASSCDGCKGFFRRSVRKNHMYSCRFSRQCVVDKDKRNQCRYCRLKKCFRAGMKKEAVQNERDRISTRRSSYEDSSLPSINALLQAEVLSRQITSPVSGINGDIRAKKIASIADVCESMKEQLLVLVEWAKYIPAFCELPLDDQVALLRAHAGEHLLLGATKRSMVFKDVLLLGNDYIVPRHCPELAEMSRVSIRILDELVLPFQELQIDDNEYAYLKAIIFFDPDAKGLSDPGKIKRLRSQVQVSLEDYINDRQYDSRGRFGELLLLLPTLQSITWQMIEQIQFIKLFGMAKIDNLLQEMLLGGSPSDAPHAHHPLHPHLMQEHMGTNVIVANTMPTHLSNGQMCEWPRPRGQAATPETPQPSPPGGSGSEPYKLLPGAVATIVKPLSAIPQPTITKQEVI
# Test: protein-binding microarray
# Conditions: COS-7 nuclear extract on double-stranded Agilent 4x180k PBM; binding buffer, salt, pH and temperature not given; high values mean tight binding; double strand, one strand shown; sequences stand for … in …GCCTAGGGAGATTAGAGTATCGGTCGA
row,Sequence,binding signal (log2 normalized intensity)
1,TTCCTTATCTGTAAAATGGACATAGTAACA,1.28
2,GTGTAAACTTTGCAGCAGATAATTACCTGG,-1.3
3,AGGGGTTAGGTAAACATTTGTTGAGTGAGT,1.23
4,CAGCATAGGGCCACTTTGTCCTTCACTTGT,0.812
5,GGTTCCAGCATGGACTTCACAGCCTGTTAG,0.147
6,AACCAAATGCACACACAATAAGGACTTTGG,4.15
7,AAGTCAATGAGCATTTCACAATTCGTTCAT,-1.22
8,CCACAGGAGGCCCCATCGCACGGCAGAACT,-1.22
9,CCAGCAGGGGCTGCTGGGAGTTGTAGTTTT,-1.27
10,AACCTGGGAAAACTTACGCACATTACTTTG,-1.26
11,GTCCAGAGGCTCCAAAGGACACTCCGCTTG,-1.42
12,GCCATGTTCTCTAGAAACAGAGCCCAAGGC,-1.35
13,CTCCTGGCTTCTGGACTATGCCTTGAACTT,3.09
14,AAAATATCACAATCCTTAAGCAGCAGATAA,-1.19
15,ACCTTCGAGCTTCACCTTTGTCCTCTCTCC,4.79
16,AACTTACCCACCTGCTGCACAACGACCCTT,3.51
17,AAGCCCTTCTTCTGGAGCCTCAGTAAGTTT,-1.04
18,CAGGAGACGTAGAGATAAGGTCTTCTACAG,-1.41
19,CTCATTTATGGAGGAATTTGGACTTTTACT,5.31
20,ACCTGCCCTGAGTCCAGCCTTCCTGTTCAA,0.512
21,TGGTCACTTGTAAGATACTGAAATGCCAAA,-0.819
22,CTGCCAAAGTTCAGCCTTGGGGCCATTCCA,1.13
23,AGCAACTATAAAACAGGAAAAAGGGACAAA,-1.22
24,TAGCTGTTGGAATTTGGTCACAGAAAGTGA,2.3
25,ATGACACAGAGTGGAAAATAAATATTTGTT,-1.24

row,Sequence,binding signal (log2 normalized intensity)
1,GACTCTAGATTGTTTGTTCTTGCTACCTAC,-0.907
2,AAGGTCTCAAGGCCTTGGCTTGGAACTGAC,-0.344
3,CATTAAAACAACCCAGAGAATGCTAGACAA,-1.34
4,ACTAGACTGCCTCTTACAACGAGGTGCCAG,-1.39
5,TGGTGACCAGACTACCTCTTTAGGCTGGAC,-0.0334
6,TATTCCAGGCACAAGAATGGTCATTCTCTG,0.0296
7,AATACTCCAGTCATTGTACAAACACATACC,-0.533
8,AGGAAAACGGAGACAGAAACTGTTTCCAAT,-1.21
9,AGGCCAGCTCATAGGGATCAGATAAGAAGT,-0.663
10,GACCAAAAGATATTTGCTGCTGACATCTCA,-1.33
11,TCGTAGGCAGGGCCAGATAAAGCAGGTTGT,-0.948
12,TTGGACTTTGTACATTCCAAATACGATAAT,5.9
13,TTTGCTTTCTTGGAGGTTAACATTTGACAA,1.64
14,TCCTGGTTGGCAAACAAAAAGCTCTGCCTA,0.00252
15,GGCAAAACTGTCACAAGAAAGGCAGAAAAC,-1.41
16,GCAGAAGGCAACAGCTCTGGAGGATTTGGG,-1.32
17,AAAGATGGGGATATAATCATTCATGGGCCA,-0.524
18,AACGGAGACAGAAACTGTTTCCAATAGGTT,-1.24
19,TAAGCCTCTGACTGTTGCATCAAACAGCTT,-1.42
20,GCTCAATCAAGGACTGGGCTGGAACACAAA,-1.32
21,AGTCTGCTCAAGTCTTTTAGAATGTGGATG,1.71
22,CTGTATTTAACTTTTGGGATCAGCAATGCT,-0.249
23,CTTTATCAACTAAGACAGACCCAAAGGTTA,1.69
24,GCTGGGCCACACTGGTTCCTGCACCCGGGC,-1.33
25,CCACTGGAGACTTCAAACGGGAAGCGAGGC,-1.2

row,Sequence,binding signal (log2 normalized intensity)
1,CAAACAATGAGGACGTGTGTGTTCTGGACT,3.02
2,CAGGCCTCAGAGATAATAGGTTGTAAAGTG,1.27
3,TATCCTGTGTTCCACAGTCAAGGCCAAAGG,3.54
4,GCCTCTCTGTGCTGGAACTTGCTTCCTTAT,1.37
5,GAAAAGCAAGATTGGGAGCTGGGAGGAGCC,-1.36
6,GAGCAGAGAAAATTCTAGATAACTCCAAGA,-0.996
7,GGGGACGGAGAGCAGGGCGTGGACTTCGCT,1.84
8,GCATTGCTTCTGAAGGCTTAAGGGGAGGAT,-1.11
9,AGTCCTCTTGTGGTAATCTCTTTTGTGTTA,2.48
10,CAGATGAAAGTAGTTGGGGATTGTGTAACA,0.949
11,CTTGAGTCCAGGAGTGCAAAGCTGCTATGA,-0.723
12,CCTGTTACCCACCTGATATTGCTGGCTCTC,-0.511
13,TTGGATTTTTCCATATCTGTGTGCCTGTGG,1.53
14,CCCCAATTGCCAAGGGGGTGGTGAAATGGG,-1.31
15,GACCCCTGTGGTACAGGCAGTGACTGGACC,3.02
16,AGTGGTCATTACCTCCCTGGGCATGTCTGC,1.5
17,CCTCCTGCCCTATGTCCTCCAGCTCTTGGG,1.12
18,TAATGCTGAACTTTAGCTCACTGTTGAACA,1.07
19,TTGAACTCACTGACTTCCATCAATGAAGCA,0.0016
20,CCAGTCCGAAGGTCCACCCGTCCGCTTGAT,2.26
21,GGGAGGCAAATCTCTTGGTCATGGAGGGAA,-0.984
22,GAGATCCTGGGTTCGAATCCCAGCGGTGCC,-1.22
23,TGAAAAGTGAACTGTCTGCTATGTGTATAT,1.43
24,GCACCCGTGGTTGATCAAAGGTTGGACTGA,4.14
25,TGGGAGCAAAGGTCAAGAGTTTTAAAGTAT,5.47

row,Sequence,binding signal (log2 normalized intensity)
1,GAGAGCAGGTGATAAGGAACTGTTATCAAG,-0.911
2,CCCAGATGCCCAGCAGAGGGAGCCGCTGTG,-1.21
3,ATATTCTTTACATTTATTAGAACCTTATGT,1.93
4,GAACAGAGGGGTCTGAGCACATCACACAGG,-1.23
5,CTGCTGGGTCAGTTTATCTAAGATTCCCCC,3.43
6,GTGAGGTCAGTTGATAAACAGATAACTGGG,-0.201
7,GTTGGACTTTGGACCTTTGTGTGTGTGTGT,8.31
8,TCCCTGAAGGCCAGGCAGCACAATTTGTGT,-0.959
9,GAAACAGGGGATGTTGATTCCCCTGTTGTC,0.397
10,GGCAGAATCTAGGATAACTCTAGTGATCTT,0.846
11,ACGACCTTTGGACTTGAATTATCCTTATGG,6.99
12,GACATTCCAGAAATACTTGTTATATTGGAT,1.43
13,ACAGTTCCAGGAATGGAAACCCCTGTAAGT,1.48
14,CCAAAGTCTAGATGCTGGGCAGCTTGTGTG,0.363
15,CCCTTTGGGAAGGGGCAAAAGAGAGCGAAG,-1.23
16,ACGCCCCACCCCCTCCACCCCTGCCTTTCA,6.34
17,ATAACTGGTTCAACCTGTTTCCACTCCAGC,-1.17
18,TGAAGAGAGTTAGGGCCTTGCTATGGAGTG,-0.205
19,TGCATGGATTTCTCAGTTGAGGAATGGGTA,0.827
20,TGGGGACCTTTGGGCTCTGACCCGAAGGGT,2.6
21,CAGAGGAAGCAATCAAGCAATCATATATGC,-1.4
22,GGCGCTGAACTTTGCCTTGTACACAAAGAC,2.98
23,GTCTGATCTTCCTGAGGAGAGCAAAGATCA,3.28
24,CCCACAGAGGGGGTTTGTTTTTTGCCCTTT,5.27
25,AGTTCTGTCCTTTGTCCCCCACCTGTGAAG,4.64

row,Sequence,binding signal (log2 normalized intensity)
1,CTTAATCCTTGTCTGTTTGGCCTTAGGTCC,3.01
2,CTCCTGGGACAAGGACTTTGGCTAGTGGCT,0.998
3,ATGTGCCCTTTGGACAGAAATATCAGCAAG,3.43
4,CCCTGTCTGATAAGGGTGTTTGTCCTTTGT,3.5
5,CGCCCAGGCTGGAATGCAGTGGCGCAATCT,-1.23
6,GTGCTGGTACATAGCAGGGGTTAGGTAAAC,-0.36
7,AAGCCCCTTGGGACAGCTGGCCTCATGCCT,-1.33
8,GACAGGATGTTCTACACTGCTTACCCTGCA,-1.36
9,GTTTTTTACTGCTCCTGCTGGCTAGCCACA,-1.31
10,CCATCCCGTGGACTCTGCCTGCCCTCTCCA,3.19
11,CCACCAAATCTTACCTAAGGAAGTTAACCC,1.95
12,CACATTGTTAGCAGAAACCATCTGGCTTGG,-1.31
13,TTCTGGTCAAAGGTCAATGAAGCTCTTGCT,6.15
14,CATATGCATTCCTGCCTCAGGCCGACCCCT,4.15
15,CCAGAGCCTCCAAAGTCCGCTTGCCTGAGG,-0.939
16,CTTTGCCAACCTGGCCTGTTTGATCTGGTT,0.767
17,TCATTCTTTAAGTGTGGGGTGACTGACTTA,1.61
18,TGGGCAGCTTGTGTGCGTTTCCCAGATATC,0.471
19,AGCAGAGCTGCTGGCAGGAATTTTAAAAGT,-1.31
20,AGGAGATAATAATACTTATCTTGCAGGGTC,2.1
21,GAACCAGGAATCCTAGGGAAGAAACATTCT,-1.29
22,GGGGGCCTCTTTTAAGAAGCCAGTGTCTAT,-0.293
23,CATGAAATTGAGATAAACATGAAACAGTCA,-0.23
24,GAATGTTTTATGTGCTCCATCAGTGGTAAA,1.22
25,AAGTGTTCAGCAAATACTAATTCTCCCCCA,4.12

row,Sequence,binding signal (log2 normalized intensity)
1,GGCCAAAGAGCAAAGGACCAAAAGATATTT,-0.232
2,CCCTGCTGTGTCACGTACCGGCTAGACAAA,-1.23
3,TAAACAAAGATACTCTCATCACTTAGGATA,-1.37
4,AGCCCAACACGGGCGAAAAAGACGCGGTCT,-1.48
5,TTTTGCCAAAGAGGTCTTATGCTCACATAC,-0.886
6,TTCTCAACAGACCCCTGAATTGGTCATAAT,3.12
7,TCAAAAGGACTCCCAGAGCATACATGCAGC,-1.37
8,GCGCATCGGGCGCCAGCGCCCCCGTGTGGC,1.2
9,GCAGCAAGGCCTGAATGAGCTCTGGGGTCC,0.921
10,GCCAATTCAGCAAACAAAGGCACTTCTCTC,-1.27
11,GCTGAGGCAGAGTTGTTTGCAGAGGGAAAG,-1.32
12,CCGCTGCTGTCTCGGGGCCAGGTGGGCTGC,-1.1
13,ACCTCCAAGAGGTTTTAGGCTATCAGACAG,-1.24
14,TGATTTGTATGATCTTGGGTATATCCTTTA,1.47
15,CAAATGAATAATCCCCTCCTGGACTTTGGT,5.55
16,TAGAAGCAGTGGGACAAAGGTCACAGGAAA,5.05
17,GGCTTATTTTAGGAGCCTCCAATCAGGACA,-1.45
18,GATGGCTATGAAGAAAAACAAGTGGAGTAG,-1.28
19,TGGCTGGGCCCTGACCTCAAGTGACCTTTG,7.77
20,TAGAAGAAAGTCTTGATAAGAAACCCAAGA,-1.31

# Source: publication PMC10726135
